Laboratory results reported in PubChem BioAssay AID1345082 (National Center for Advancing Translational Sciences (NCATS), 2018).
Screen size: about 94,000 compounds; about 4,000 (4.3%) were called active. The shares of active, inactive and inconclusive entries below differ from those in the screen. Calls follow the shape of the dose curve; as a rule, active = well fitted inhibition curve with a large enough effect; inconclusive = small, poorly fitted or top-dose-only effect; inactive = no such curve, though single readings can be large or run the other way. Potencies beside an inconclusive call are fits to weak or partial responses and may not hold up.

Experiment: Cytotoxic Profiling in NIH 3T3 Cell Line of Diverse Libraries Using Quantitative High-Throughput Screening; also: nearly all actives have a fitted effect of over 55% in size
Conditions: NIH 3T3 viability, CellTiter-Glo ATP luminescence, 48-72 h; activity change, negative = cytotoxicity: at 96.7 µM (top of the series); series mostly up to 96.7 µM
How it was run: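 Cytotoxicity was measured by CellTiter-Glo ATP luminescence after 48 or 72 h compound exposure at 37 °C. Mouse NIH 3T3 fibroblasts were seeded at 400 cells/well and dosed by 23 nL pin transfer.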
% is scaled to controls: 0 for no effect and ±100 for the full control effect; potency is read from the fitted curve at half-maximal effect; tags tell the direction and shape of the fitted curve.

Compound	Potency	activity change, negative = cytotoxicity	outcome
Fc1ccc2nc([C@H]3CCN(Cc4cccs4)C3)[nH]c2c1	inconclusive: 79.4 µM [inhibitor, partial curve]		
COc1ccccc1C(=O)NCCC1CCN(C(=O)Nc2cc(F)cc(F)c2)CC1	inconclusive: 50.1 µM [inhibitor, partial curve, poor fit]		
COc1ccccc1N1CCC(N2CCN(CCCc3ccccc3)C(CCO)C2)CC1 (stereo not given)	inconclusive: 50.1 µM [inhibitor, partial curve, poor fit]		
Cc1ccc(OCC(=O)N2CCCC(CN3CCCC3)CC2)cc1 (stereo not given)		inactive: -22.7%	
Cc1ccccc1-c1[nH]nc2ncc(-c3ccccc3C#N)nc12	inconclusive: 22.4 µM [inhibitor, full curve, poor fit]		
N#Cc1cccc(C(=O)NC2CCN(c3cc(-c4ccc(F)cc4)[nH]n3)CC2)c1	inconclusive: 44.7 µM [inhibitor, partial curve, poor fit]		
O[C@@H]1C[C@@H](c2nc(Cc3ccccc3)no2)N(Cc2cc3ccccc3o2)C1	inconclusive: 112 µM [inhibitor, partial curve, poor fit]		
Cn1ncc2c(C(=O)NC3CCOCC3)cc(-c3cccc(F)c3)nc21		inactive: -8.08% [at 138 µM]	
O=C(NC1CCN(c2cn[nH]c(=O)c2)CC1)C1CCC1		inactive: -16.6%	
CC(C)c1noc([C@@H]2C[C@@H](O)CN2Cc2ccc(S(C)(=O)=O)cc2)n1	inconclusive: 100 µM [inhibitor, partial curve, poor fit]		
Cc1ccc(Nc2ccnc(N3CCCC3C(=O)NCCCc3ccccc3)n2)cc1 (stereo not given)	inconclusive: 50.1 µM [inhibitor, partial curve, poor fit]		
COc1ccccc1-c1cccc(C(=O)N2CCC[C@H]2C(=O)NCc2cccc(Cl)c2)c1	inconclusive: 50.1 µM [inhibitor, partial curve, poor fit]		
CCO[C@H]1CN(C(=O)CCn2c(C)cc(C)nc2=O)C[C@@H]1O		inactive: -14%	
COCC(=O)N1CCn2c(nn(-c3ccc(C)cc3)c2=O)C1		inactive: -27.5% [at 138 µM]	
COc1ccc(NC(=O)O[C@@H]2C=C[C@H](c3c(C)nn(-c4ccc(F)cc4)c3C)C2)cc1	inconclusive: 89.1 µM [inhibitor, partial curve]		
Cc1cnc(-c2cccnc2)n1C1CCCN(C(=O)c2cnccn2)C1 (stereo not given)		inactive: -19.9%	
O=[N+]([O-])c1ccc(-c2ncc[nH]2)cc1	inconclusive: 100 µM [inhibitor, partial curve]		
CCn1c2c(c(=O)n1Cc1ccccc1)CCN(Cc1c[nH]c3ccccc13)C2	inconclusive: 100 µM [inhibitor, partial curve, poor fit]		
COc1ccccc1-c1cc(C(=O)NCc2cccc(Cl)c2)nn2cccc12	inconclusive: 39.8 µM [inhibitor, partial curve, poor fit]		
O=C(CC1C(=O)NCCN1CC(c1ccccc1)c1ccccc1)NCc1ccco1 (stereo not given)		inactive: -10%	

Compound	Potency	activity change, negative = cytotoxicity	outcome
O=C(NCCc1ccccc1)c1ccc2nnc(C3CCCC3)n2c1	inconclusive: 89.1 µM [inhibitor, partial curve, poor fit]		
Cc1cc(C)c(CNC(=O)c2nc(-c3ccccc3O)cc3c2ccn3C(C)C)c(=O)[nH]1	inconclusive: 89.1 µM [inhibitor, partial curve, poor fit]		
CC1(C)C[C@H](NC(=O)c2ccc(C#N)cc2)[C@@]2(CCC(=O)NCCc3c[nH]c4ccccc34)CC[C@](C)(O)C[C@@H]12	inconclusive: 79.4 µM [inhibitor, single point]		
COCCNC(=O)C1(C)CCc2cnc(Nc3ccccc3)nc21 (stereo not given)	active: 79.4 µM		
O=C(COc1ccccc1)N[C@H]1CO[C@H]2[C@@H]1OC[C@H]2OC(=O)Nc1cccc2ccccc12	inconclusive: 56.2 µM [inhibitor, partial curve, poor fit]		
O=C(N[C@@H]1CN(C(=O)Cc2c[nH]c3ccccc23)C[C@H]1CO)c1ccccc1		inactive: -16.9%	
O=C(NCC1CN(C(=O)Cc2cccc(Cl)c2)CC12CN(c1ccccc1)C2)C1CC1 (stereo not given)	inconclusive: 89.1 µM [inhibitor, partial curve, poor fit]		
COc1ccc(C(=O)N2[C@@H]3CC[C@H]2CC(NC(=O)c2ccncc2)C3)cn1 (stereo not given in full)			inactive
Cc1nn(-c2ccccc2)c2c1C(C)N(CC1CN(Cc3ccc(F)cc3)C1)C2=O (stereo not given)	active: 35.5 µM		
Cc1cccc(-c2cccc(CN3CCC(N[S+](=O)([O-])c4cccs4)CC3)c2)c1	inconclusive: 44.7 µM [inhibitor, partial curve, poor fit]		
O=C(NC1CCN(c2cc(-c3cccs3)[nH]n2)CC1)c1ccc(F)c(Cl)c1	inconclusive: 50.1 µM [inhibitor, partial curve, poor fit]		
COc1ccc(CCNC(=O)c2cc(-c3ccccc3OC)c3nncn3n2)cc1	inconclusive: 44.7 µM [inhibitor, partial curve, poor fit]		
Cc1ccccc1S(=O)(=O)N1CCCC(Cc2noc(-c3ccncc3)n2)C1 (stereo not given)	inconclusive: 50.1 µM [inhibitor, partial curve, poor fit]		
O=C(CCc1ccccc1)NCc1nnc2c(-c3nc(C4CC4)no3)cccn12		inactive: -2.65%	
CCOC(=O)c1ccc(NC(=O)Cn2c(N3CCOCC3)nc(CC)cc2=O)cc1	inconclusive: 44.7 µM [inhibitor, partial curve, poor fit]		
CNC(=O)[C@@H]1C[C@@H](n2cc(CNC(=O)Nc3ccc(F)cc3F)nn2)CN1		inactive: -4.4%	
COc1ccc(-c2ncc3c(n2)OCCN(CC2CC2)C3=O)cc1	inconclusive: 100 µM [inhibitor, partial curve, poor fit]		
O=C(c1ccc(N2CC3CC(C2)[C@H]2CCCC(=O)N2C3)nc1)N1CCN(c2ccccc2)CC1 (stereo not given in full)	inconclusive: 50.1 µM [inhibitor, partial curve, poor fit]		
Cc1cnc(CC2CCN(S(=O)(=O)c3cccc(F)c3)C2)n1C(C)C (stereo not given)		inactive: -19.3%	
N#Cc1cccc(CN2Cc3[nH]cnc3C[C@H]2c2nc(-c3ccccc3)no2)c1	inconclusive: 112 µM [inhibitor, single point]		
